# PubChem BioAssay AID1508642 (National Center for Advancing Translational Sciences (NCATS), 2021)
# Out of some 43,000 compounds screened, about 200 (0.47%) were called active. Not shown: some 12% with an inconclusive outcome. Calls come from the whole dose curve; as a rule, active = well fitted cell-killing curve with a large enough effect; inconclusive = small, poorly fitted or top-dose-only effect, or effect the other way; inactive = flat fitted curve, though single readings scatter. The list shows a part of the results.
# Assay: Cell viability qHTS assay in S16 Pmp22-F2sN cells; note: nearly all actives have a fitted effect of over 65% in size
# Settings: S16 Pmp22-F2sN Schwann cells (luciferase reporters placed in the Pmp22 gene) viability, CellTiter-Glo, 24 h; series mostly up to 57.5 µM; activity change, negative = cytotoxicity: at the top concentration
# Method in brief: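 S16 Schwann cells carrying the Pmp22-F2sN reporter, seeded in 1536-well format, were exposed to library compounds for 24 h at 37C. Viability was read as CellTiter-Glo luminescence after 15 min at room temperature.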
# % is set by controls: 0 for no effect and ±100 for the full control effect.
row,Structure (SMILES),"activity change, negative = cytotoxicity"
1,O=C(CSC1=Nc2ccccc2N=C(c2ccc(F)cc2)C1)NCc1ccc(Cl)cc1,inactive: 9.58%
2,Cc1ccc(CN(C(=O)COc2ccc(Cl)cc2Cl)C2CCS(=O)(=O)C2)o1 (stereo not given),inactive: -0.0946%
3,Cc1[nH]c(=O)[nH]c(=O)c1S(=O)(=O)N1CCN(c2cccc(Cl)c2)CC1,inactive: -0.0832%
4,CCCCNC(=O)CN1C(=O)COc2ccc(S(=O)(=O)N3CCCC3)cc21,inactive: -1.29%
5,COc1ccc(CNC(=O)CN2C(=O)CSc3ccc(S(=O)(=O)N4CCCC4)cc32)cc1,inactive: -4.3%
6,CSc1cccc(NC(=O)Cn2cnc(S(=O)(=O)N3CCCC3)c2)c1,inactive: 4.81%
7,O=C(Nc1ccccc1OCc1cc(=O)n2ccccc2n1)c1ccccc1F,inactive: 1.15%
8,CCCn1c2ccccc2c2cnn(CC(=O)NCc3cc(OC)ccc3OC)c(=O)c21,inactive: 15%
9,COc1ccc(Cl)cc1NC(=O)N1CCC(CN2CCCCCC2)CC1,inactive: -2.46%
10,CCc1ccccc1NC(=O)C(C)n1nc(-c2ccc(C)c(C)c2)ccc1=O (stereo not given),inactive: -0.666%
11,Cc1cccc(Cn2cc(C(=O)Nc3ccc(S(N)(=O)=O)cc3)ccc2=O)c1,inactive: -5.68%
12,COc1ccc(NC(=O)CN(C)S(=O)(=O)c2cccc3nsnc23)cc1,inactive: -22.5%
13,COc1ccc(CNC(=O)C(=O)NCC(c2ccco2)S(=O)(=O)c2ccc(C)cc2)cc1 (stereo not given),inactive: -26.3%
14,COC(=O)c1ccc(Cn2nnc3sc4c(c3c2=O)CCCC4)cc1,inactive: -5.77%
15,COc1cc2nc(Nc3ccc(F)cc3)nc(N)c2cc1OC,inactive: -0.198%
16,CCOC(=O)c1cccc(NC(=O)C(Cc2ccccc2)NS(=O)(=O)c2cccc3nsnc23)c1 (stereo not given),inactive: -2.24%
17,Cc1cccc(NC(=O)C2CCN(S(=O)(=O)c3ccc4c(c3)CCCC(=O)N4)CC2)c1,inactive: 6.42%
18,CCCNC(=O)C1CCC(Cn2c(=O)c3sccc3n(CC(=O)Nc3ccccc3C)c2=O)CC1 (stereo not given),inactive: 2.27%
19,CCCN(C(=O)c1sc2nc3n(c(=O)c2c1C)CCCC3)c1ccccc1C,inactive: -1%
20,Cc1ccc2c(c1)CC(C)N2S(=O)(=O)c1nnc(NC(=O)C(C)C)s1 (stereo not given),inactive: 8.17%
21,COc1ccc(NC(=O)Cn2cc(C(=O)C3CCCCC3)c3ccccc32)cc1,inactive: -0.373%
22,Cc1c(Cl)cccc1NC(=O)C(=O)NCC(c1cccnc1)N1CCN(c2ccccc2)CC1 (stereo not given),inactive: -22.6%
23,COc1ccc(-c2cc(C(F)(F)F)nc(SCCC(=O)Nc3cccc(O)c3)n2)cc1,inactive: -6.33%
24,Cc1cc(=O)n(CC(=O)Nc2cccc([N+](=O)[O-])c2)c(-n2nc(C)cc2C)n1,inactive: -1.77%

row,Structure (SMILES),"activity change, negative = cytotoxicity"
1,CCc1noc(-c2ccc(N(C)Cc3ccc(OC)cc3)c([N+](=O)[O-])c2)n1,inactive: -28.6%
2,COc1ccc(OC)c(NC(=O)N2CCC(N3CCN(Cc4ccc(F)cc4)C(=O)C3=O)CC2)c1,inactive: 6.59%
3,CCc1ccc(Nc2cc(C(=O)NCCCN(C)c3ccccc3)c3ccccc3n2)cc1,inactive: 15.3%
4,COC(=O)c1c(NC(=O)c2cc3nc(-c4ccc(Br)cc4)cc(C(F)(F)F)n3n2)sc2c1CCCC2,inactive: 0.932%
5,COc1ccccc1CNC(=O)c1cc2cc(C)ccc2n1C,inactive: -18.7%
6,CN(C)c1cccc(C(=O)N2CCC(c3ccncc3)CC2)c1,inactive: -0.238%
7,COCCNc1ncnc2onc(-c3ccc(F)cc3)c12,inactive: -0.299%
8,CC(C)Oc1ccc(C(=O)N2CC(=O)Nc3ccc(F)cc3C2c2ccc(F)cc2)cc1 (stereo not given),inactive: -8.87%
9,CCOc1ccc(CNC(=O)CN2C(=O)C3CCCCN3c3ccc(C(=O)N4CCCC4)cc32)cc1 (stereo not given),inactive: 7.97%
10,CCc1cccc(C)c1NC(=O)C(CC)n1ncn2c(cc3cc(C)ccc32)c1=O (stereo not given),inactive: 1.83%
11,CCOc1ccc(CNC(=O)c2cnc3sc(N4CCCCCC4)nn3c2=O)cc1OC,inactive: 10.5%
12,Cc1ccc(S(=O)(=O)c2nc(S(=O)(=O)c3ccc(C)cc3)c(NC(C)C)s2)cc1,inactive: -1.36%
13,Cc1ccc(C)c(NC(=O)Cn2c(=O)n(Cc3ccc4c(c3)OCO4)c(=O)c3ccc(C(=O)NC4CCCCC4)cc32)c1,inactive: 11.3%
14,O=C(O)CCc1ccc(-c2cccs2)n1CC(=O)Nc1ccccc1C(F)(F)F,inactive: 4.11%
15,O=C(CSc1nc(-c2ccccc2)nc2c1CCCC2)c1ccc(Cl)cc1,inactive: 15.6%
16,COc1ccc(Cn2ccc3nc(C)c(C(=O)N4CCN(c5cc(C)ccc5C)CC4)cc3c2=O)cc1,inactive: -12.6%
17,COc1ccccc1CNC(=O)CN1C(=O)c2cccnc2Oc2ccccc21,inactive: -2.15%
18,CCOc1ccc(CNC(=O)C2CCN(C(=O)c3sccc3-n3cccc3)CC2)cc1,inactive: -5.61%
19,Cc1ccc(-n2c(SCCC(C)C)nc3sc4c(c3c2=O)CC(C)(C)OC4)cc1,inactive: 1.72%
20,COc1ccc(-c2cc(C(C)=O)c(C)n2CCC(=O)NC2CCCCC2)cc1,inactive: 2.55%
21,COc1ccc(OCCSc2nc3ccccc3n2CC(=O)N2CCOCC2)cc1,inactive: -3.95%
22,COc1ccc(NC(=O)CCCc2nnc3n(CCC(C)C)c(=O)c4sccc4n23)cc1Cl,inactive: 1.79%
23,O=c1c2c3c(sc2n(Cc2cc(=O)n4ccccc4n2)c(=O)n1-c1ccccc1)CCC3,inactive: -9.06%
24,Cc1ccc(C)c(NC(=O)c2nnn(CC(=O)Nc3cccc(C)c3C)c2N)c1,inactive: 0.85%

row,Structure (SMILES),"activity change, negative = cytotoxicity"
1,O=c1cc(CN2CCN(S(=O)(=O)c3ccccc3)CC2)nc2sc(-c3ccccc3Cl)nn12,inactive: 11%
2,O=C(CCSCc1ccccc1Cl)N1CCN(c2ccc(F)cc2)CC1,inactive: -7.35%
3,CCc1ccc(C(=O)c2cn(CC(=O)Nc3ccc4c(c3)OCCO4)c3ccc(C)cc3c2=O)cc1,inactive: -0.132%
4,CC(=O)c1ccc(NC(=O)COc2ccccc2-c2nc(-c3ccccc3)no2)cc1,inactive: 3.1%
5,COCc1cc(C)nc2sc3c(c12)NC(c1ccccc1C(=O)O)N(c1ccc(OC)cc1)C3=O (stereo not given),inactive: 3.07%
6,O=C(CS(=O)(=O)c1nc(-c2ccc(Cl)cc2)cn1-c1ccccc1)Nc1ccc(F)cc1F,inactive: -28.7%
7,Cc1ccc(NC(=O)C(Cc2ccccc2)NS(=O)(=O)c2cccs2)cc1Cl (stereo not given),inactive: 5.01%
8,COc1ccc(CC(=O)Nc2ccc(-c3nc4ccccc4s3)c(C)c2)cc1,inactive: 2.4%
9,COc1ccc(NC(=O)c2ccc3oc(=O)c(S(=O)(=O)c4ccc(F)cc4)cc3c2)c(OC)c1,inactive: -1.58%
10,CC(C)c1nc2sc3c(N4CCCCC4)ncnc3c2c2c1CCCC2,inactive: 8.64%
11,CCOc1ccc(-n2c(SCC(=O)c3ccccc3)nc3c([nH]c4ccccc43)c2=O)cc1,inactive: 2.42%
12,COCC(C)Nc1ncnc2c1cnn2-c1cccc(Cl)c1 (stereo not given),inactive: -2.58%
13,COc1ccc(C(=O)Oc2ccc(C3NC(=O)c4c(sc5c4CCN(C)C5)N3)cc2OC)cc1 (stereo not given),inactive: 4.46%
14,Cc1ccc(Cl)cc1N1CCN(C(=O)c2cc(S(=O)(=O)N3CCCCC3)cn2C)CC1,inactive: -0.317%
15,COC(=O)c1ccc(CSc2nc3ccncc3n2Cc2ccc(F)cc2)cc1,inactive: 9.36%
16,COc1ccc2cc3c(N)nn(C(=O)c4ccc(F)cc4Cl)c3nc2c1,inactive: -21.9%
17,CCn1c(=O)n(CC2CCC(C(=O)NC(C)C)CC2)c(=O)c2sccc21 (stereo not given),inactive: -5.9%
18,CCOC(=O)c1c(C)[nH]c(C)c1S(=O)(=O)N1CCC(C(=O)Nc2ccc(OC)c(OC)c2)CC1,inactive: -13.7%
19,CCN1CCN(c2ncnc3c2cnn3-c2ccc(F)cc2)CC1,inactive: 24%
20,CCOC(=O)c1cc(CC)sc1NC(=O)COc1ccccc1C,inactive: 6.7%
21,COc1ccc(C(=O)NCC(c2ccc3c(c2)OCO3)N2CCN(C)CC2)cc1OC (stereo not given),inactive: 5.36%
22,COC(=O)c1ccccc1NC(=O)CCc1c(C)nc2cc(-c3ccc(Cl)cc3)nn2c1C,inactive: -3.8%
23,CC(=O)c1cc(-c2ccc(F)cc2)n(CCC(=O)NC2CCCCC2)c1C,inactive: 2.31%
24,CCC(C(=O)NCCc1ccc(SC)cc1)n1nc(C)c2c(C)n(-c3ccc(C)cc3)nc2c1=O (stereo not given),inactive: -15.3%

row,Structure (SMILES),"activity change, negative = cytotoxicity"
1,COc1cc(C2CC(=O)N(CC(=O)Nc3ccccc3F)c3ccccc3S2)cc(OC)c1OC (stereo not given),inactive: -0.0778%
2,Cc1ccc(CCNC(=O)c2ccc(CSc3nc4ccncc4n3Cc3ccc(F)cc3)cc2)cc1,inactive: -3.88%
3,Cc1ccc(-n2nc(CO)c(C(=O)NC(C)c3ccccc3)n2)cc1C (stereo not given),inactive: -16.5%
4,CSc1ccc(CCNC(=O)CCc2c(C)nc3c4cccnc4nn3c2C)cc1,inactive: -4.54%
5,COc1cccc(CNCc2c(C(=O)O)c(C)n(Cc3ccc(F)cc3Cl)c2C)c1OC,inactive: -1.33%
6,O=C(CC1N=C2c3ccccc3N=C(SCc3cccc(F)c3)N2C1=O)NC1CCCCC1 (stereo not given),inactive: -8.78%
7,CCSc1nc2sc3c(c2c(=O)n1-c1ccc(C)cc1)CCCC3,inactive: 17.8%
8,CC(C)CNc1cc(NC2CCCCC2)c2c3c(onc13)-c1ccccc1C2=O,inactive: -20.6%
9,Cc1ccc(Cl)cc1N1CCN(C(=O)c2cn(C)c3ccc(S(=O)(=O)N4CCCCC4)cc3c2=O)CC1,inactive: 0.359%
10,Cc1ccc(-n2nc(C)c3c(C)c(CCC(=O)NCc4ccccc4Cl)c(C)nc32)cc1,inactive: -4.25%
11,COc1ccc(C2=C(C(C)=O)Sc3nnc(-c4ccccc4)n3N2C(C)=O)cc1,inactive: -2.41%
12,CC(=O)NCCNC(=O)c1ccc2c(=O)n(CCc3ccccc3)c(=O)[nH]c2c1,inactive: 10.4%
13,O=C(Cn1c(=O)n(Cc2ccco2)c(=O)c2sc3ccccc3c21)Nc1ccccc1C(F)(F)F,inactive: 4.63%
14,Cc1nc2nc(C)c(CCC(=O)NCc3cccc(Cl)c3)c(C)n2n1,inactive: 11.5%
15,CCOc1cc(C2NC(=O)c3c(sc4c3CCN(C)C4)N2)ccc1OC(=O)c1ccc(F)cc1 (stereo not given),inactive: 1.55%
16,Fc1ccc(Cc2cn3cc(-c4ccc(F)cc4)nc3s2)cc1,inactive: 20.1%
17,COc1cc(NC(=O)c2cc3cc4cc(OC)ccc4nc3o2)cc(OC)c1,inactive: 19.3%
18,CCOC(=O)c1cnc2c(ccc3ccccc32)c1Nc1ccc(OC)cc1OC,inactive: -21.4%
19,COc1cccc(N=C2SC(C(=O)Nc3cccc(Cl)c3)CC(=O)N2C)c1 (stereo not given),inactive: 6.35%
20,Cc1ccccc1C(=O)N1CCCCC1CCN1CCCCC1 (stereo not given),inactive: 19.5%
21,COc1ccc(N2CCN(C(=O)CCc3c(C)nc4cc(-c5cccc(F)c5)nn4c3C)CC2)cc1,inactive: 16.7%
22,CC(=O)N1CCc2c(sc3c2c(=O)n(-c2ccccc2)c(=O)n3Cc2cccc(C(F)(F)F)c2)C1,inactive: -13.8%
23,COc1ccc(C)cc1NC(=O)c1oc2ccc(S(=O)(=O)N3CCOCC3)cc2c1C,inactive: -8.37%
